Reference: publication PMC4336329 (PLoS ONE, 2015)
Screen size: about 310,000 compounds; about 14,000 (4.5%) showed an effect of 50% or more. Effects have a minus sign here. This is one part of the list.

Biological target: human ether-à-go-go-related gene (hERG) potassium channel (human, UniProt Q12809)
Test: primary screen, population patch clamp on CHO cells stably expressing hERG
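Note: peak tail current of the secondary pulse compared with the same well before compound.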

Sequence of human ether-à-go-go-related gene (hERG) potassium channel (Q12809 whole entry, looked up): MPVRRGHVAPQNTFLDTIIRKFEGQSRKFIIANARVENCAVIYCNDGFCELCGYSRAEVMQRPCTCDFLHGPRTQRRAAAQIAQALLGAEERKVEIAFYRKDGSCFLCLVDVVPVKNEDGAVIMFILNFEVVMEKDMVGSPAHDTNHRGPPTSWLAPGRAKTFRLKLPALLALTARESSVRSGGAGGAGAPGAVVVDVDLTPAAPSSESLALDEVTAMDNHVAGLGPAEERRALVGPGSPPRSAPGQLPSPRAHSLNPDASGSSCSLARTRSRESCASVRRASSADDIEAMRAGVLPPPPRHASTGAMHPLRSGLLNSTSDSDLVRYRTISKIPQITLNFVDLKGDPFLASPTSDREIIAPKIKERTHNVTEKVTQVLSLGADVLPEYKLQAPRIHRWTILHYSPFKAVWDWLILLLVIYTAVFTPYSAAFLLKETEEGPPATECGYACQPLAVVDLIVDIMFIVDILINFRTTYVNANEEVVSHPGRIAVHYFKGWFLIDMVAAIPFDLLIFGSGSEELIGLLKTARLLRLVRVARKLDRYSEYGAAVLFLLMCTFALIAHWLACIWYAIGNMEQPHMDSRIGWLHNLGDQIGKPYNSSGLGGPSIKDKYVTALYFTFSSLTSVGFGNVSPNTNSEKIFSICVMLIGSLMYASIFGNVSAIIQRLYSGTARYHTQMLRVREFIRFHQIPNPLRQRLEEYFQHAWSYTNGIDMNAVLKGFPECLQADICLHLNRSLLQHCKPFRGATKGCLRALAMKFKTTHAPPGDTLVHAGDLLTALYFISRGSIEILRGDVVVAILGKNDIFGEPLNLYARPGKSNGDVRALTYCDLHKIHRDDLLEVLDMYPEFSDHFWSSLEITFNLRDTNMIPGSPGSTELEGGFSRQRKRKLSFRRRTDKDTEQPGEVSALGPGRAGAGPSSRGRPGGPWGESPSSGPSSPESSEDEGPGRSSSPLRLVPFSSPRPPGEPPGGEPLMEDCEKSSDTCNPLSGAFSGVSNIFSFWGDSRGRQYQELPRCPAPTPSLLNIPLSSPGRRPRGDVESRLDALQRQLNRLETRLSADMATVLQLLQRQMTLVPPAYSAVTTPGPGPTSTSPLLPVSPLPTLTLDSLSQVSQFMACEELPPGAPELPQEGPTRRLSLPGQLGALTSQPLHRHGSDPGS

| SMILES | hERG current change (%, negative = inhibition) at 10uM [%] |
| --- | --- |
| OCCC1CN(Cc2ccccc2-c2ccco2)CCN1C1CCCC1 (stereo not drawn) | -63.8 |
| Cc1ccc(S(=O)(=O)NC2(C(F)(F)F)C(=O)Nc3c2c(=O)[nH]c(=O)n3-c2ccccc2)cc1 (stereo not drawn) | 5.57 |
| Cc1ccc(Nc2nnc(SCC(=O)NC3CCCc4ccccc43)s2)cc1 (stereo not drawn) | -13.3 |
| COCCCNC(=O)COc1ccc(-c2nccc(-c3ccccn3)n2)cc1 | -3.83 |
| CCOC(=O)c1ccccc1NC(=O)C(C)Oc1ccccc1 (stereo not drawn) | 5.95 |
| CCc1ccc(-c2cc(C)no2)cc1S(=O)(=O)NCCN1CCC(C)CC1 | -7.14 |
| CCN(C(=O)CSc1ccc2ccccc2n1)C1CCS(=O)(=O)C1 (stereo not drawn) | -7.61 |
| COc1ccc(-c2cc(C(=O)n3cnc4ccccc43)c3ccccc3n2)cc1 | 5.38 |
| CC(C)(C)CC(C)(C)NC(=S)N1CCN(Cc2ccc3c(c2)OCO3)CC1 | 35.1 |
| CCn1c(=O)[nH]c2cc(C(=O)N3CCN(c4ccccc4)CC3)ccc2c1=O | 0.849 |
| Cc1ccc(OCc2cc(C(=O)N3CCCCCCC3)no2)cc1C | 3.22 |
| Cc1csc(NC(=O)CCC(=O)N(CC(=O)NC2CCCC2)Cc2ccco2)n1 | 0.0555 |
| CCCCc1nc(N2CCOCC2)c(C#N)c2c1CCCC2 | -5.16 |
| Cc1ccc(NC(=O)CSc2nc(N)cc(=O)[nH]2)cc1S(=O)(=O)N1CCOCC1 | 20 |
| C/C(CC(=O)Nc1cccc(C(F)(F)F)c1)=N\NC(=O)C1CCCCC1 | -13.3 |
| O=[N+]([O-])c1cc(S(=O)(=O)C(F)(F)F)ccc1NCC1CCCO1 (stereo not drawn) | 16.5 |
| Cc1c(/C=N\NC(=O)c2csc3ccccc23)cnn1C | 14.6 |
| CC1=[N+](C)N(c2ccccc2)C(=O)C1N=C/C=C/c1ccccc1 (stereo not drawn) | 5.16 |
| COC(CNC(=O)c1cc(-c2ccncc2)nc2ccc(S(=O)(=O)N3CCOCC3)cc12)OC | -27.1 |
| O=c1c2ccccc2nc(-c2ccccc2)n1CCCn1ccnc1 | -31.9 |
| CCCN1CCN(C(=S)Nc2ccc3nc(N4CCN(CC)CC4)cc(C)c3c2)CC1 | 2.61 |
| O=C(O)C(Cc1ccccc1)N1C(=O)c2ccccc2C1=O (stereo not drawn) | -13.7 |

| SMILES | hERG current change (%, negative = inhibition) at 10uM [%] |
| --- | --- |
| CCc1nonc1NC(=O)c1oc2c(C)c(C)ccc2c1C | 22.4 |
| CCN1C[C@@]2(COC)C3[C@@H](OC)[C@H]4[C@@H]1[C@@]3(C1C[C@H]3[C@H](O)C1[C@]4(O)C[C@H]3OC)[C@@H](OC)C[C@H]2O (stereo partly drawn) | 19 |
| CCOC(=O)c1ccc(NC(=O)CSc2nc3sc(C(=O)O)c(C)c3c(=O)[nH]2)cc1 | 15.6 |
| Cc1cc(C)n(-c2nnc(C)n2/N=C/c2ccccc2F)n1 | -12 |
| CC(=O)[C@@H]1[C@@H](C)N(Cc2ccccc2)C(=O)N[C@H]1c1ccccc1 | 10.4 |
| Cc1cccc(C(=O)Nc2cccnc2Cl)c1 | 2.66 |
| COC(=O)c1ccc(Cn2nc([N+](=O)[O-])c(Br)c2C)cc1 | -6.89 |
| Cc1csc2nc(O)c(C(=O)NCc3ccc4c(c3)OCO4)c(=O)n12 | -0.16 |
| COc1ccc(CNC(=O)COC(=O)c2n[nH]c3ccccc23)cc1 | 7.27 |
| CC(C)C(=O)N1CCN(S(=O)(=O)c2ccc3ccccc3c2)CC1 | -10.4 |
| COc1ccccc1-n1c(SCC(=O)Nc2nnc(C)s2)nc2c(c1=O)SCC2 | 14.1 |
| CS(=O)(=O)c1ccc2nc(NC(=O)c3ccc(Cl)nc3)sc2c1 | 18.7 |
| O=C(Nc1ccc(Cl)cc1)N1CCOCC1 | 13.8 |
| CC(C)CC(=O)N/N=C/c1c(N)n(C)c(=O)n(C)c1=O | 21.7 |
| CCOC(=O)N1CCN(C(=O)CSc2nc3c([nH]c4ccccc43)c(=O)n2CC)CC1 | -13.8 |
| CC1=CCC(COC(=O)Nc2ccccc2)CC1 (stereo not drawn) | -12.2 |
| O=C(COc1ccc(CO)cc1Cl)Nc1ccc(F)cc1 | -5.76 |
| COc1ccc(CN(C(=O)c2oc3cc(C)c(C)cc3c2C)C2CCS(=O)(=O)C2)cc1OC (stereo not drawn) | 1.47 |
| Cc1ccccc1S(=O)(=O)Cc1ccc(C(=O)NCCN(Cc2ccccc2)C(C)C)o1 | -55.6 |
| COC(=O)C(O)(c1ccc2c(c1)CCCN2)C(F)(F)F (stereo not drawn) | 3.04 |
| Cn1c(=O)c2c(ncn2CC(=O)Nc2ccc3c(c2)OCO3)n(C)c1=O | 3.43 |
| Cc1nn(CC(C)C)c(Cl)c1C(=O)NC1CCC(C)CC1 (stereo not drawn) | -42.8 |

| SMILES | hERG current change (%, negative = inhibition) at 10uM [%] |
| --- | --- |
| CC1(C)C(=O)C2(C(=O)NCc3ccccc3)CCC1C2 (stereo not drawn) | 12.1 |
| CC(Cn1nnc2ccccc21)C(=O)O (stereo not drawn) | -1.46 |
| COc1ccc(NC(=O)COC(=O)c2ccc3ccccc3n2)cc1 | 14.8 |
| O=C(Nc1ccc(F)cc1)N1CCCN(c2nccc(C(F)(F)F)n2)CC1 | -5.24 |
| CN(c1cccc(Cl)c1)S(=O)(=O)c1cccc(C(=O)Nc2ccc3c(c2)CCC3)c1 | 10.2 |
| Cc1ccsc1-c1nc(CSCC(=O)NCc2ccc3c(c2)OCO3)c(C)o1 | -29.2 |
| Cl.OCCCCNCc1cc(Br)ccc1OCc1ccccc1 | -61.8 |
| COc1cc(CCC(=O)N2CCN(c3ncccn3)CC2)cc(OC)c1OC | 11.8 |
| CC(C)CC(=O)NC(C)C(c1cccs1)N1CCOCC1 (stereo not drawn) | -0.115 |
| CC(C)NC(=S)Nc1ccc(Oc2ccccc2)cc1 | 3.37 |
| CC(C)NS(=O)(=O)c1ccc(NC(=O)C2CC3C=CC2C3)cc1 (stereo not drawn) | 7.15 |
| CNC(=O)NC(=O)C(C)N1CCN(C/C=C/c2ccccc2)CC1 (stereo not drawn) | -63 |
| CC(C)(C)c1cc(/C=N/NC(=O)Cc2nc3ccccc3[nH]2)cc(C(C)(C)C)c1O | 7.46 |
| CCC1SC(C)C/C(=N/NC(N)=O)C1C (stereo not drawn) | -0.535 |
| Cc1ccc(S(=O)(=O)N(C)C)cc1NC(=O)CSc1nnnn1-c1ccc(O)cc1 | -20.9 |
| Cc1ccccc1C(=O)NC(=S)Nc1ccc(Oc2ccc(Cl)cc2)cc1 | 11.5 |
| Cn1c(COc2ccccc2)nnc1SCc1cc(=O)[nH]c2ccccc12 | -23.5 |
| COc1ccc(C(=O)NC(C)CCn2cccn2)cc1OC1CCN(C(C)C)CC1 (stereo not drawn) | 15.1 |
| COc1ccccc1C1(CCNC(C)c2cccs2)CCOC(C(C)C)C1 (stereo not drawn) | -6.82 |
| COc1ccc(C(=O)Nc2cccc(NC(=O)c3ccc(OC)cc3OC)n2)c(OC)c1 | 24.1 |
| COc1ccccc1N(CC(=O)NCc1ccco1)S(=O)(=O)c1ccc(C)cc1 | 7.01 |
| C=CCNC(=S)N(Cc1ccccc1)Cc1ccc(F)cc1 | -17.3 |

| SMILES | hERG current change (%, negative = inhibition) at 10uM [%] |
| --- | --- |
| c1ccc(-c2cc(NCCN3CCCCC3)c3ccccc3n2)cc1 | -44.5 |
| COc1ccc(-c2c(C)nc(N)nc2-c2ccc(OCc3ccc(C)cc3)cc2O)cc1OC | 4.25 |
| CCC(=O)N/N=C(\C)CC(=O)Nc1cc(Cl)ccc1C | 8.49 |
| Cc1c(C(=O)O)oc2ccc(S(=O)(=O)N3CC(C)CC(C)C3)cc12 (stereo not drawn) | 11.9 |
| COCCN1CCn2c(nc3cc(NC(=O)c4cccs4)ccc32)C1 | -5.84 |
| CN(CC(=O)Nc1ccc(Cl)c(C(F)(F)F)c1)C(=O)C1CCCO1 (stereo not drawn) | -0.286 |
| COc1cccc(-c2nnc(SC(C(=O)c3c[nH]c4ccccc34)c3ccccc3)n2C)c1 (stereo not drawn) | 17.6 |
| Cc1cc(O)c(CN(C)C)c2c1C(=O)/C(=C/c1ccco1)O2 | 3.97 |
| COc1cccc(C2C(C(=O)c3sc(C)nc3C)=C(O)C(=O)N2CCN2CCOCC2)c1 (stereo not drawn) | 10.8 |
| Cc1ccc(C2C(C(=O)c3cccs3)=C(O)C(=O)N2c2nnc(C)s2)cc1 (stereo not drawn) | 8.18 |
| Cc1cccc(OCCCC(=O)Nc2ccc(S(N)(=O)=O)cc2)c1 | 13.8 |
| O=C(Nc1ccc2ccccc2n1)c1ccc(Cl)cc1 | 13.1 |
| CC(C)(C)c1ccc(-n2ncc3c2CCCC3NC(=O)C2=NNC(=O)CC2)cc1 (stereo not drawn) | -35.6 |
| O=C1NC2(CCOc3ccccc32)C(=O)N1CC(=O)N(Cc1ccccc1)C1CCS(=O)(=O)C1 (stereo not drawn) | 15.7 |
| CC(C)(C)NC(=O)NC(=O)C[n+]1ccc(Cc2ccc([N+](=O)[O-])cc2)cc1.[Cl-] | -5.27 |
| COC(=O)Nc1ccc(S(=O)(=O)N2CCCC(C(=O)N3CCCCCC3)C2)cc1 (stereo not drawn) | 0.43 |
| CCC1SC2=NCCN2C1(O)c1ccc(Cl)cc1 (stereo not drawn) | -15.7 |
| O=C1CC(c2ccccc2)n2nc(N3C(=O)c4ccccc4C3=O)nc2N1 (stereo not drawn) | -4.36 |
| CSc1c(CN2CCN(C)CC2)c2ccccc2n1C.Cl | 12.8 |
| Cc1csc(=Nc2cccnc2)n1CC1CCCCC1 | -2.76 |
| CN1CCN(C(=O)c2ccc3c(c2)N(Cc2ccc(Cl)cc2)C(=O)c2ccccc2S3=O)CC1 (stereo not drawn) | -7.16 |
